Read counts are not given, so values of variants with three or more changes are uncertain.

The text below walks through data of the RNAGym collection of RNA variant scans (doi:10.7554/elife.90254).

The chains are these.
B1: LINE1-mini (parent)
chain: GGCAGAGCUCAACACAGCGUGGCAAAGUGGCUGUGGCUAGACUGCC

The variants in this data set derive from B1. As to the kind of experiment: self-cleavage, relative activity (ratio to wild type); higher = more cleavage; in vitro, sequencing; the parent is a self-cleaving ribozyme.
For GGCAGAGCUAAACACAGCGUGGUAAAGUGGCUGUGGCUAUACUGCC, the self-cleavage amounted to 0.
The value for GGCAGAGCUAAACACAGCGUGGCAAAGUGGUUGUGACUAGACUGCC was 0; that for GGCAGAGCUAAACAUAGCGUGGCAAAGUGGGUGUGGCUACACUGCC was 0.01.
For GGCAGAGCUAAACAUAGCGUGCCAAAGUUGCUGUGGCUAGACUGCC, the self-cleavage turned out to be 0.06.
Take GGCAGAGCUAAACACAGCGUGGCAAAGUGGUUGUGGCUACACUGCC: the self-cleavage was determined as 0.03.
The value for GGCAGAGCUAAACAAAGCGUGGCAAAGUGACUGUGUCUGGACUGCC was 0.03; that for GGCAGAGCUAAACAUAGCGUGGCAAAGUGUCUGUGGCUAGACUACC was 0.04.
The result for GGCAGAGCUAAACACAUCCUGGCAAAGUGGCUGUGUCUAGACUGCC reads 0.01; that for GGCAGAGCUAAACACAUCGUGGCUAAGUGGCUGUGUCUAGACUGCC, 0.02.
The result for GGCAGAGCUAAACACAUCGUGGCAAAGUGGCUGUGGCUUGACUGCC reads 0.27; that for GGCAGAGCUAAACACAACGUGGCAAAGUUGCUGUGGCUUGACUGCC, 0.
On to GGCAGAGCUAAACAUAGCGUGGCAAAGUGGCUGUGGCUAGACAGCC, for which the self-cleavage came to 0.01.
GGCAGAGCUAAACAAAGCGUGGCAAAUUGGCUGUGGCUAGACUGCC: the self-cleavage was 0.01.
The value for GGCAGAGCUAAACAGAGCGCGGCAAAUUGGGUGUGGCUAGACUGCC was 0.06.
Turning to GGCAGAGCUAAACACAGGGUGGCAAAGUGGCUGUGGCUAGACUGUC, the self-cleavage is 0.19.
The result for GGCAGAGCUAAACACAGAGUGGCAAAGUGGCUGCGGCUAGACUGCC reads 0.03; that for GGCAGAGCUAAACACAUCGUGGCAAAGUGGGUGUGGCUAGUCUGCC, 0.03; that for GGCAGAGCUAAACACAGUGUGGCAAAGUGGCUUUGGCUAGACUGCC, 0.02.
The value for GGCAGAGCUAAACACAGUGUGGCAAAGUGGCUCUGGCUAGACUGCC was 0; that for GGCAGAGCUAAACAAAGCGUGGCAAACCGGCUGUGGCUAGACUGCC was 0.01.
The value for GGCAGAGCUAAACACACCGUGGCAAAGUGGCUGUGGCUAGAUUACC was 0.03; that for GGCAGAGCUAAACACAACAUGGCAAAGUGGCUGUUGCUAGACUGCC was 0.02; that for GGCAGAGCUAAACACAGCGUGGUAAAGUGGCUGAGGUUAGACUGCC was 0.03.
In the case of GGCAGAGCUAAACACAGCGUGGAAAAGUCGCUGUAGCUAGACAGCC, the self-cleavage is 0.01.
Consider GGCAGAGCUAAACACAUCGUGGUAAAGUGGCUGUGGCUAGACUGCC, for which the self-cleavage came to 0.1.
Take GGCAGAGCUAAACACAUCGUGGCAAAGUGGAUGUGGCUAGACUGCC: the self-cleavage is 0.07.
The value for GGCAGAGCUAAACAGAGCGUAGCUAAGUGGCUGUGGCUAGACUACC was 0.03; that for GGCAGAGCUAAACAGAGCGUGGCAAAGUGGCUGUAGCUAGAAUGCC was 0; that for GGCAGAGCUAAACACAUCGUGGUAAAGUGUCUGUGGCAUGACUGCC was 0.02.
The value for GGCAGAGCUAAACACAGCGUGGCAAAGUGGCUGUGGAUACACUGCC was 0.05.
The result for GGCAGAGCUAAACACAGCGUGGAAAAGUGGCAGUGGCUAGACUGCC reads 0.01.
Regarding GGCAGAGCUAAACACACCGUGGCAGAGUGGCUGUGGCUAGACUGCC, the self-cleavage was 0.03.
The value for GGCAGAGCUAAACACAGCGUGGGAAAGUGGCUGUGUCUAGAGUGCC was 0.02; that for GGCAGAGCUAAACACAGAUUGGCAAAGUGGCUGUGGCUUGACUGCC was 0.07.
The value for GGCAGAGCUAAACACAUCGUGGCCAAAUGGCUGUGGCUAGACUGCC was 0.02.
The value for GGCAGAGCUAAACACAGUGUUGCAAAGUGGCUGUGGCUAGACUGCC was 0.14.
As for GGCAGAGCUAAACACAUCGUGGCAACGUUGCUGUGGCUAGACUGCC, the self-cleavage is 0.09.
The value for GGCAGAGCUAAACACAGCGUGGAAAAGUGGCUAUGGCUAGACUGCA was 0.02; that for GGCAGAGCUAAAUACAGCGUGGCAAAGUGGCUUUGGCUAGACGGCU was 0.02.
The result for GGCAGAGCUAAACACAGCGUGGUAAAGUGGCUGUGGCUAGAAUGCU reads 0.01; that for GGCAGAGCUAAACACAGCGUGGGAAAGUGGAUGUGGUUAGACUGCC, 0; that for GGCAGAGCUAAACACACCGUUGCAAAGUGGCUGUGGCCAGAUUGCC, 0.03.
The result for GGCAGAGCUAAACACAGCGUGGUUAAGUGGCUGUGGUUAGACUGCC reads 0.01; that for GGCAGAGCUAAACACAGCGUGGGCAAGUGGCUGUGGAUAGAGUGCC, 0.01.
Consider GGCAGAGCUAAACACAGCGUGGCAAAGUGGAGGUGGCUAGACUGCC, for which the self-cleavage worked out at 0.17.
The value for GGCAGAGCUAAACACAGCGUGGAAGAGUGGCUGUGGCGAGGCUGCC was 0.
The result for GGCAGAGCUAAACAUAGCGUGGCAAAGUGGCUGUGGGUUGACUGCC reads 0.01.
Turning to GGCAGAGCUAAACACACCGUGGCAAUGUGGCUGUGGCUAGACUGCC, the self-cleavage was determined as 0.03.
The result for GGCAGAGCUAAACACAGCGUGGCAAAGUGGCUGUGGUCAGCCCGCC reads 0.04; that for GGCAGAGCUAAACACAGUCUGGCUACGUGGCUGUGGCUAGACUGCC, 0.02.
GGCAGAGCUAAACACAGCGUGGCAAAGUGGCUGUGGCUAGAUUGAC: the self-cleavage turned out to be 0.
The value for GGCAGAGCUAAACACAGCGUGGCAAAGUGGCUGUGGCUAGAUUGGC was 0.02; that for GGCAGAGCUAAACACAGCGUGGCAAAGUGGUUGUGGCUUGACUGCC was 0.12; that for GGCAGAGCUAAACACAGCGUGGCAAAGUGGUUGUGGCCAGACUGCC was 0.06.
The value for GGCAGAGCUAAACACAGCGUGGCAAAGUGGCUGUGGACAGACUGAC was 0.04; that for GGCAGAGCUAAACACAGUGUGUUAAAGUGUCUGUGGCUAGACUGCC was 0.02.
